Experimental data taken from a collection of fitness landscapes (doi:10.1126/science.1257360).
This is one part of the list.

B1: PhoQ; a variant is named by its letters at X, in order, P23837 (parent)
chain: MKKLLRLFFPLSLRVRFLLATAAVVLVLSLAYGMVALIGYSVSFDKTTFRLLRGESNLFYTLAKWENNKLHVELPENIDKQSPTMTLIYDENGQLLWAQRDVPWLMKMIQPDWLKSNGFHEIEADVNDTSLLLSGDHSIQQQLQEVREDDDDAEMTHSVAVNVYPATSRMPKLTIVVVDTIPVELKSSYMVWSWFIYVLSANLLLVIPLLWVAAWWSLRPIEALAKEVRELEEHNRELLNPATTRELTSLVRNLNRLLKSERERYDKYRTTLTDLTHSLKTPLXXLQXXLRSLRSEKMSVSDAEPVMLEQISRISQQIGYYLHRASMRGGTLLSRELHPVAPLLDNLTSALNKVYQRKGVNISLDISPEISFVGEQNDFVEVMGNVLDNACKYCLEFVEISARQTDEHLYIVVEDDGPGIPLSKREVIFDRGQRVDTLRPGQGVGLAVAREITEQYEGKIVAGESMLGGARMEVIFGRQHSAPKDE

Variants of: B1
Test: enrichment ratio after two sorts for PhoP signalling (ratio (wild type AVST 3.29)); higher = more functional
Conditions: with PhoP (E. coli)

| Variant | enrichment ratio |
| --- | --- |
| RNTA | ≤ 0.25 |
| RSEQ | ≤ 0.25 |
| HIVR | ≤ 0.25 |
| FFHI | ≤ 0.25 |
| LAYI | 6.02 |
| FENN | ≤ 0.25 |
| GLML | 9.1 |
| HERG | ≤ 0.25 |
| WTTY | ≤ 0.25 |
| FIVC | ≤ 0.25 |
| QRMF | ≤ 0.25 |
| QRTC | ≤ 0.25 |
| LHII | ≤ 0.25 |
| TFAD | ≤ 0.25 |
| DGCV | ≤ 0.25 |
| DWKL | ≤ 0.25 |
| IQTP | ≤ 0.25 |
| MYTV | ≤ 0.25 |
| SKHA | ≤ 0.25 |
| YESN | ≤ 0.25 |
| HGDV | ≤ 0.25 |
| MLTI | 4.55 |
| VYVR | ≤ 0.25 |
| DHCD | ≤ 0.25 |

| Variant | enrichment ratio |
| --- | --- |
| IERG | ≤ 0.25 |
| VDWN | ≤ 0.25 |
| LKRV | ≤ 0.25 |
| DHAN | ≤ 0.25 |
| HNPF | ≤ 0.25 |
| IADI | ≤ 0.25 |
| SKLG | 5.04 |
| ESES | ≤ 0.25 |
| MFLD | ≤ 0.25 |
| HAMA | ≤ 0.25 |
| IDGE | ≤ 0.25 |
| FKIW | ≤ 0.25 |
| MGWM | 21 |
| HRKP | ≤ 0.25 |
| YNFG | ≤ 0.25 |
| WTRN | ≤ 0.25 |
| YTGT | ≤ 0.25 |
| RHAW | ≤ 0.25 |
| YKIA | ≤ 0.25 |
| VTWL | ≤ 0.25 |
| ILCC | ≤ 0.25 |
| YNWS | ≤ 0.25 |
| IRGP | ≤ 0.25 |
| YFDQ | ≤ 0.25 |

| Variant | enrichment ratio |
| --- | --- |
| RLKT | ≤ 0.25 |
| DHYC | ≤ 0.25 |
| RCDS | ≤ 0.25 |
| RSNM | ≤ 0.25 |
| IAES | ≤ 0.25 |
| MKYQ | ≤ 0.25 |
| RVVN | ≤ 0.25 |
| MKMS | ≤ 0.25 |
| YHTW | ≤ 0.25 |
| QYLN | ≤ 0.25 |
| RASC | ≤ 0.25 |
| QQVG | ≤ 0.25 |
| TLYS | ≤ 0.25 |
| DTDM | ≤ 0.25 |
| PIHK | ≤ 0.25 |
| FKSW | ≤ 0.25 |
| NSGS | ≤ 0.25 |
| STWL | ≤ 0.25 |
| LFFW | ≤ 0.25 |
| VFRK | ≤ 0.25 |
| IIVW | ≤ 0.25 |
| NVDW | ≤ 0.25 |
| DEEW | ≤ 0.25 |
| RVKC | ≤ 0.25 |

| Variant | enrichment ratio |
| --- | --- |
| FSVC | ≤ 0.25 |
| FSNA | ≤ 0.25 |
| PQQY | ≤ 0.25 |
| DRNG | ≤ 0.25 |
| GRMA | ≤ 0.25 |
| AIHM | ≤ 0.25 |
| KFEK | ≤ 0.25 |
| SVAA | 1.83 |
| TTDS | 1.65 |
| TFYV | ≤ 0.25 |
| PQAK | ≤ 0.25 |
| MGGG | ≤ 0.25 |
| ALPS | ≤ 0.25 |
| IHDW | ≤ 0.25 |
| TTPT | ≤ 0.25 |
| EYTG | ≤ 0.25 |
| LEDC | ≤ 0.25 |
| LGVS | ≤ 0.25 |
| RECC | ≤ 0.25 |
| YNFV | ≤ 0.25 |
| MHVY | ≤ 0.25 |
| STCS | 10.8 |
| NADH | ≤ 0.25 |
| PCHF | ≤ 0.25 |

| Variant | enrichment ratio |
| --- | --- |
| WCYR | ≤ 0.25 |
| KNFH | ≤ 0.25 |
| VQLS | ≤ 0.25 |
| YYQR | ≤ 0.25 |
| GHCM | ≤ 0.25 |
| GGQA | ≤ 0.25 |
| VKQR | ≤ 0.25 |
| SANF | 2.35 |
| VTWM | ≤ 0.25 |
| VVRG | ≤ 0.25 |
| MEDL | ≤ 0.25 |
| GCLK | 3.91 |
| YTIK | ≤ 0.25 |
| QWRF | ≤ 0.25 |
| YHQP | ≤ 0.25 |
| DNRN | ≤ 0.25 |
| QYVF | ≤ 0.25 |
| MEWW | ≤ 0.25 |
| WNDH | ≤ 0.25 |
| IEAI | ≤ 0.25 |
| TAVH | ≤ 0.25 |
| HWES | ≤ 0.25 |
| MHDA | ≤ 0.25 |
| RQHK | ≤ 0.25 |

| Variant | enrichment ratio |
| --- | --- |
| NVLY | ≤ 0.25 |
| QDPA | ≤ 0.25 |
| MHCA | ≤ 0.25 |
| FANM | ≤ 0.25 |
| IVYS | ≤ 0.25 |
| WGPN | ≤ 0.25 |
| FSRL | ≤ 0.25 |
| MEPQ | ≤ 0.25 |
| VPVM | ≤ 0.25 |
| LQYV | ≤ 0.25 |
| VMMD | ≤ 0.25 |
| DQQA | ≤ 0.25 |
| MPTE | ≤ 0.25 |
| FRFM | ≤ 0.25 |
| INAW | ≤ 0.25 |
| NEDV | ≤ 0.25 |
| SEDH | ≤ 0.25 |
| YNCR | ≤ 0.25 |
| LLKF | ≤ 0.25 |
| WEEP | ≤ 0.25 |
| NRDA | ≤ 0.25 |
| GKTC | ≤ 0.25 |
| MNQA | ≤ 0.25 |
| NERG | ≤ 0.25 |

| Variant | enrichment ratio |
| --- | --- |
| TSGW | ≤ 0.25 |
| GFES | ≤ 0.25 |
| AMIR | 0.403 |
| ARIK | ≤ 0.25 |
| ASVQ | 4.67 |
| RYQP | ≤ 0.25 |
| DQTN | ≤ 0.25 |
| MLPW | ≤ 0.25 |
| RPNW | ≤ 0.25 |
| LDGQ | ≤ 0.25 |
| HEVF | ≤ 0.25 |
| KMGN | ≤ 0.25 |
| LKDP | ≤ 0.25 |
| KSWG | ≤ 0.25 |
| THCL | 8.89 |
| HDQQ | ≤ 0.25 |
| DDIQ | ≤ 0.25 |
| EGFV | ≤ 0.25 |
| LIEY | ≤ 0.25 |
| VCVH | ≤ 0.25 |
| YHYE | ≤ 0.25 |
| RQGT | ≤ 0.25 |
| TIMC | 9 |
| DNPR | ≤ 0.25 |

| Variant | enrichment ratio |
| --- | --- |
| YTPM | ≤ 0.25 |
| NDFL | ≤ 0.25 |
| TIKR | ≤ 0.25 |
| AALF | 9.71 |
| KNNY | ≤ 0.25 |
| QHMP | ≤ 0.25 |
| TIMN | 2.93 |
| HFQF | ≤ 0.25 |
| LGPQ | ≤ 0.25 |
| TFEF | ≤ 0.25 |
| RDVT | ≤ 0.25 |
| IAAG | ≤ 0.25 |
| EESW | ≤ 0.25 |
| HKSI | ≤ 0.25 |
| SNKE | ≤ 0.25 |
| MCTV | ≤ 0.25 |
| QYEY | ≤ 0.25 |
| ALHF | ≤ 0.25 |
| QSCT | ≤ 0.25 |
| CPFL | ≤ 0.25 |
| APPD | ≤ 0.25 |
| HQDG | ≤ 0.25 |
| YWVA | ≤ 0.25 |
| GFRE | ≤ 0.25 |

| Variant | enrichment ratio |
| --- | --- |
| QLNY | ≤ 0.25 |
| NKKM | ≤ 0.25 |
| SNAQ | 8.15 |
| YKDR | ≤ 0.25 |
| LLDS | ≤ 0.25 |
| TRQV | ≤ 0.25 |
| FKAD | ≤ 0.25 |
| FSNH | ≤ 0.25 |
| ILCS | ≤ 0.25 |
| RHTG | ≤ 0.25 |
| YRCG | ≤ 0.25 |
| FHRV | ≤ 0.25 |
| KKGW | ≤ 0.25 |
| QAMM | ≤ 0.25 |
| YVPA | ≤ 0.25 |
| DFHV | ≤ 0.25 |
| IVFH | ≤ 0.25 |
| FIIS | ≤ 0.25 |
| CCLI | ≤ 0.25 |
| MNFV | 1.01 |
| RTPY | ≤ 0.25 |
| NTSA | ≤ 0.25 |
| PHCQ | ≤ 0.25 |
| SIGG | 6.86 |

| Variant | enrichment ratio |
| --- | --- |
| HVPL | ≤ 0.25 |
| FDFL | ≤ 0.25 |
| REHE | ≤ 0.25 |
| SPWC | ≤ 0.25 |
| GNTS | 6.21 |
| IKAT | ≤ 0.25 |
| KTLW | ≤ 0.25 |
| LPYY | ≤ 0.25 |
| AWTK | 5.87 |
| SMIW | ≤ 0.25 |
| YCHI | ≤ 0.25 |
| ALMS | ≤ 0.25 |
| NNWQ | ≤ 0.25 |
| VSGG | ≤ 0.25 |
| MGDG | ≤ 0.25 |
| VWMV | ≤ 0.25 |
| SMIQ | ≤ 0.25 |
| SRHQ | ≤ 0.25 |
| VSYE | ≤ 0.25 |
| AVAW | 22.5 |
| NDDM | ≤ 0.25 |
| TNKF | ≤ 0.25 |
| YACD | ≤ 0.25 |
| MKKT | ≤ 0.25 |

| Variant | enrichment ratio |
| --- | --- |
| SNLQ | 15.3 |
| KHLQ | ≤ 0.25 |
| KETK | ≤ 0.25 |
| KEHD | ≤ 0.25 |
| MEDT | ≤ 0.25 |
| EQPL | ≤ 0.25 |
| YCST | 0.374 |
| NLMC | ≤ 0.25 |
| IHNL | ≤ 0.25 |
| GHSH | ≤ 0.25 |
| NQPK | ≤ 0.25 |
| GLGL | 0.346 |
| MPTN | ≤ 0.25 |
| INLA | ≤ 0.25 |
| PCAC | ≤ 0.25 |
| HFGV | ≤ 0.25 |
| YNSD | ≤ 0.25 |
| WMAI | ≤ 0.25 |
| NGGA | ≤ 0.25 |
| SHKF | ≤ 0.25 |
| RAVV | ≤ 0.25 |
| RQMT | ≤ 0.25 |
| VTMQ | 2.91 |
| EDGI | ≤ 0.25 |

| Variant | enrichment ratio |
| --- | --- |
| YTKS | ≤ 0.25 |
| QCLT | ≤ 0.25 |
| EYNQ | ≤ 0.25 |
| ICVG | ≤ 0.25 |
| VRDC | ≤ 0.25 |
| NSRR | ≤ 0.25 |
| NLGG | ≤ 0.25 |
| ALGV | ≤ 0.25 |
| DWCR | ≤ 0.25 |
| SNHW | ≤ 0.25 |
| LTKE | ≤ 0.25 |
| RWAC | ≤ 0.25 |
| IDSC | ≤ 0.25 |
| DWQY | ≤ 0.25 |
| NWHL | ≤ 0.25 |
| GIWM | ≤ 0.25 |
| YGEK | ≤ 0.25 |
| YKYG | ≤ 0.25 |
| TCYY | 3.43 |
| EGYT | ≤ 0.25 |
| QYKV | ≤ 0.25 |
| QKMD | ≤ 0.25 |
| EQHA | ≤ 0.25 |
| AINS | ≤ 0.25 |

| Variant | enrichment ratio |
| --- | --- |
| VECT | 12 |
| IFHT | ≤ 0.25 |
| TPDH | ≤ 0.25 |
| WGLC | ≤ 0.25 |
| VFAG | ≤ 0.25 |
| QAPH | ≤ 0.25 |
| ITNK | ≤ 0.25 |
| MHEP | ≤ 0.25 |
| PAEI | ≤ 0.25 |
| WGSF | ≤ 0.25 |
| VGLL | 9.05 |
| YSAI | ≤ 0.25 |
| PGTI | ≤ 0.25 |
| YGGL | ≤ 0.25 |
| LDCS | ≤ 0.25 |
| GPKL | ≤ 0.25 |
| EPIG | ≤ 0.25 |
| GTCP | ≤ 0.25 |
